PubChem BioAssay AID1794749 (DTP/NCI, 2022)
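The endpoint reported here, percent growth, reads 100 for growth as untreated, 0 for no net growth and -100 for all cells dead.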 A number of entries come with more than one value. Only these are listed. There may be further records. These are repeated runs of one drug, at the concentration stated with the values; each value is one run. Additions like (4×) count equal records among those shown.

Tested on: XF 498 CNS
Assay: NCI-60 one-dose screen, 48 h (100 = growth as untreated, 0 = no growth, -100 = all killed)
Conditions: 2.5 mM
Method: Growth inhibition of the XF 498 human tumor cell line is measured as a screen for anti-cancer activity. Cells are grown in 96 well plates and exposed to the test compound for 48 hours. Compounds are tested at a single concentration, which is 10^-5 M for most compounds. The reported endpoint is percent growth (GI% or GIPRCNT), where numbers from 0 - 100% represent growth inhibition, and numbers from -100% - 0 represent cell death. For example, a value of 40 represents 60% growth inhibition. A value of 0 means no net growth occurred over the course of the experiment. A value of -40 indicates 40% of cells at the beginning of the experiment died by the end of the experiment. A value of -100 means all cells are dead at the end of the experiment.
NCI-60 Human Tumor Cell Lines Screen was performed using the standard one-dose NCI protocol, which is described in more detail at https://dtp.cancer.gov/discovery_development/nci-60/default.htm.
Compounds with GIPRCNT values below 10 were considered active. Activity score was based on GIPRCNT using the following formula: […]
Score is 0 for GIPRCNT values of 100 or above, 50 for GIPRCNT values of 0, and 100 for GIPRCNT values of -100.

## O=c1[nH]cc(F)c(=O)[nH]1
Runs of 1991
  growth: 22.3, -9.3, -14.3, 50.3, -5.71, -10.4, 10.4, -9.35, 15, 22.8, -8.18%
Runs of 1992
  growth: 16.6, -23.2, -3.08, 29.4, 50.3, -23.1, -1.44, 20.6, 79.1, -16 (2×), 32.6, 8.51, -27.1, -1.49, 34.7, 4.68, 31.8, 7.69, -7.28, -2.79, -26.9, 31.1, -16.3, -5.03, 17.3, 22.2, 34, 11.2, -6.6, -9.36, -12, 9.29, -12.9, -18.4, -29, -25.1, -4.29, -9.69, 7, -10.4, -9.33, 8.84, -8.7, -23.4, -25.7, -13.8, 24.6, 183, -5.95, 2.49, 35, -14.7, -3.78, 7.87, 8.05, 24.7, 9.62, 23.6, 28.7, 6.85, 14.3, 16.2, 19.6, 57.2, 19.3, 35.3, 17.8, -21, -0.816, -4.76, 8.25, -6.44, -18.9, -8.62, -7.44, 39.9, 4.33, 13, -2, 2.7, -7.12, 27.8, 25.4, -2.45, -17.6, -6.01, -17.2, 52.4%
